One experiment addresses T1, pdP2X7^WT (Ailuropoda melanoleuca, UniProt G1M6C4).
T1 sequence (G1M6C4 2-606): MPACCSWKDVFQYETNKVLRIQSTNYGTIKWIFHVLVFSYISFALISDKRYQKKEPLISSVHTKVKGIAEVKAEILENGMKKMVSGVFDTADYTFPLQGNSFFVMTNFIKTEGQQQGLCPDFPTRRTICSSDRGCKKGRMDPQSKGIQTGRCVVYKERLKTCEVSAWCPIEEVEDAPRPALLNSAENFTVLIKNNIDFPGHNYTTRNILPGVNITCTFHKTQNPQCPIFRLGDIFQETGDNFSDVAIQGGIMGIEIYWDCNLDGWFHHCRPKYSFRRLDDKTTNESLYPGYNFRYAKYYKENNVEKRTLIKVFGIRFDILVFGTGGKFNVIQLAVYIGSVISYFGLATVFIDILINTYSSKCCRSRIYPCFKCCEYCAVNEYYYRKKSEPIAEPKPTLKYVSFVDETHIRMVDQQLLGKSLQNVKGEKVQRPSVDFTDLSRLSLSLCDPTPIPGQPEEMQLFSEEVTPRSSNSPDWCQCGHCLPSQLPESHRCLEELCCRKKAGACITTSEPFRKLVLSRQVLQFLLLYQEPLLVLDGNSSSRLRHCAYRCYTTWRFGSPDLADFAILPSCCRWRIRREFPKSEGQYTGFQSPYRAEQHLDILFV
Description: ATP concentration-response, perforated patch clamp in HEK293 cells. It counts as cell-based, giant panda (Ailuropoda melanoleuca).

A further experiment deals with T2, hP2X1^E119A (Homo sapiens, UniProt P51575, E119A).
T2 sequence (P51575 1-399 E119A): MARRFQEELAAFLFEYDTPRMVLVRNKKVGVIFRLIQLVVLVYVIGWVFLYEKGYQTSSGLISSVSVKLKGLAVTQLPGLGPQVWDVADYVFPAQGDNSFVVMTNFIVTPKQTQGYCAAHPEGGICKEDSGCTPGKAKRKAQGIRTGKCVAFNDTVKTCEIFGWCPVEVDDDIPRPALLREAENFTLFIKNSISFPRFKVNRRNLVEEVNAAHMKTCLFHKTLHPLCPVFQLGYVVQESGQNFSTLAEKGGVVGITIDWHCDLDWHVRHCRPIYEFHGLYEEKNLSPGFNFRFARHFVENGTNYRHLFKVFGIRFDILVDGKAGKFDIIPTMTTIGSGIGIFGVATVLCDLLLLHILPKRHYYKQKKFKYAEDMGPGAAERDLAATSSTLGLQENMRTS
Described as above. The class given is cell-based.

Another experiment deals with T3, pdP2X7^D121A (Ailuropoda melanoleuca, UniProt G1M6C4, D122A).
T3 sequence (G1M6C4 2-606 D122A): T1 sequence (G1M6C4 2-606) with D121A
The experiment is described as above. It counts as cell-based, giant panda (Ailuropoda melanoleuca).

Another experiment concerns the target T4, zfP2X4^E121A/r-beak (Danio rerio, UniProt F8W463, A142T/D145S/E121A/F139S/G144S/K136T/N140V/R137P/R143H/R148A).
T4 sequence (F8W463 1-389 E121A/K136T/R137P/F139S/N140V/A142T/R143H/G144S/D145S/R148A): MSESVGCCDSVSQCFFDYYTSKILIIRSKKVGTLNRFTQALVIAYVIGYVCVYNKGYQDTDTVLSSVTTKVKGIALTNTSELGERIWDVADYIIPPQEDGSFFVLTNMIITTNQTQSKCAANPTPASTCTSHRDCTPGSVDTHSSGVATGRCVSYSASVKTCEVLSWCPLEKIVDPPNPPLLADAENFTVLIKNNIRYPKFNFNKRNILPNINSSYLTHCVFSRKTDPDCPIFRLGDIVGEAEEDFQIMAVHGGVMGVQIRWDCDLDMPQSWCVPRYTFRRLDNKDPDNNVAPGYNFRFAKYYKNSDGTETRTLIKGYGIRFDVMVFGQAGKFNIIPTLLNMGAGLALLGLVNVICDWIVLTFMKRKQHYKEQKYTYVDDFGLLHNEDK
Nature of the experiment: ATP concentration-response, chimera, perforated patch clamp in HEK293 cells. (In general: The patch-clamp technique gives a direct electrical read-out from membranes.)

For a further experiment, the target named is T5, hP2X7^E121A (Homo sapiens, UniProt Q99572, E121A).
T5 sequence (Q99572 1-595 E121A): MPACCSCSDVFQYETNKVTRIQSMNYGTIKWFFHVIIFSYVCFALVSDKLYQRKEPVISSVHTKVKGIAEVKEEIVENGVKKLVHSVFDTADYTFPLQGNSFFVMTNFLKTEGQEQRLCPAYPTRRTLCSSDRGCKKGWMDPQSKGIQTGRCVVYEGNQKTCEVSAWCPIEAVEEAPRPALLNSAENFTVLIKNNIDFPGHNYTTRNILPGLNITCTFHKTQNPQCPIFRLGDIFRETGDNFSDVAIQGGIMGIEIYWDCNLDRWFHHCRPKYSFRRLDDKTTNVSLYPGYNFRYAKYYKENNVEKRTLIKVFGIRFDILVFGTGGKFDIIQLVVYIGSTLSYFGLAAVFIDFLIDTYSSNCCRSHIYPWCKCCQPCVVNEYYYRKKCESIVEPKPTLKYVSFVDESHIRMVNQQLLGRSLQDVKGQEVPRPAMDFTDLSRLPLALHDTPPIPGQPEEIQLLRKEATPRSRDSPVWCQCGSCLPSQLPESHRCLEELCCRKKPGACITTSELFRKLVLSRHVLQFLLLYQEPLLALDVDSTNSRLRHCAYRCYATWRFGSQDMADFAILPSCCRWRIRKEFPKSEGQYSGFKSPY
Nature of the experiment: ATP concentration-response, perforated patch clamp in HEK293 cells. It counts as cell-based.

Residue numbers refer to the chain shown, from its start.

Broadly, the EC50 is the midpoint of the concentration-response curve. Higher therefore signals lower potency in that assay. As to `Nc1ncnc2c1ncn2[C@@H]1O[C@H](COP(=O)(O)OP(=O)(O)OP(=O)(O)O)[C@@H](O)[C@H]1O` [ATP], the EC50 at pdP2X7^WT was 95.7 ± 17.6 µM; at hP2X1^E119A, 0.92 ± 0.17 µM; on pdP2X7^D121A, 96.6 ± 10.9 µM; at zfP2X4^E121A/r-beak it was > 1000 µM; at hP2X7^E121A, 360 ± 54.3 µM. In addition, the “nH (Hill coefficient) of ATP” value worked out at 1.44 ± 0.32 at pdP2X7^WT (pdP2X7^WT), 1.46 ± 0.33 on hP2X1^E119A (hP2X1^E119A), 1.53 ± 0.24 on pdP2X7^D121A (pdP2X7^D121A) and 1.34 ± 0.20 at hP2X7^E121A (hP2X7^E121A).
